Each structure is given as a SMILES string. The list shows a part of the results. Many values rest on one well or one pass, so single values are uncertain.

Among the data in the supplement of paper PMC4604168 (melanoma cell lines) are cell count values, retold here.

Holding throughout (assay): cell count relative to DMSO control; melanoma cells; higher = more viable cells
Holding throughout (details): library dose: standard library concentration; 72 h

Experiment [1] has as its system SkMel28.
The subject of experiment [2] is SkMel2.
The test system of experiment [3] is SkMel30.
The subject of experiment [4] is SkMel5.
For experiment [5], the system named is UACC257.
For experiment [6], the system named is UACC62.
Experiment [7] concerns WM115.
Experiment [8] relates to WM1716.
Experiment [9] has as its system WM1745.
In experiment [10] the test system is WM3526.
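Note: cells treated in 1,536-well plates, then fixed and DAPI-stained, with nuclei counted from automated high-throughput microscope images.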

Consider `C=C(c1ccc(C(=O)O)cc1)c1cc2c(cc1C)C(C)(C)CCC2(C)C` [Bexarotene] + Cc1nc(Nc2ncc(C(=O)Nc3c(C)cccc3Cl)s2)cc(N2CCN(CCO)CC2)n1 [dasatanib] (first compound 10 µM, partner dose 0.02 µM), for which the cell count came out at 57.9% in experiment [1]; 103% in experiment [2]; 109% in experiment [3]; 72.6% in experiment [4]; 81.9% in [5]; 74% in [6]. The cell count in experiment [7] is 102%; in [8], 54.4%; in [9] it was 42.5%; in experiment [10], 79.1%.
With `CN(c1ncccc1CNc1nc(Nc2ccc3c(c2)CC(=O)N3)ncc1C(F)(F)F)S(C)(=O)=O` + O=C(Nc1cccc(Cl)c1)Nc1ncc(CCNc2ncnc3ccsc23)s1 [SNS314] (first compound 0.4 µM, partner dose 0.004 µM), the cell count in experiment [1] turned out to be 50.1%; in experiment [2] it was 70.6%; in experiment [3] it was 90.3%; in experiment [4] it was 58.5%; in experiment [5] it was 59.1%; in [6] it was 67.9%. Also, the cell count stood at 30% in experiment [7], 60.2% in [8], 41.7% in [9] and 77.1% in experiment [10].
In the case of `CCCS(=O)(=O)Nc1ccc(F)c(C(=O)c2c[nH]c3ncc(Cl)cc23)c1F` + CC1(C)NC(=O)N(c2ccc([N+](=O)[O-])c(C(F)(F)F)c2)C1=O [nilutamide] (first compound 0.4 µM, partner dose 5 µM), the cell count amounted to 53.1% in [1]; 90.1% in experiment [2]; 103% in [3]; 66.6% in experiment [4]; 92.8% in experiment [5]; 48.6% in experiment [6]. Moreover, the cell count in [7] came to 66.3%; in experiment [8] it was 66.9%; in [9], 83.4%; in experiment [10] it was 58.8%.
With `CCCS(=O)(=O)Nc1ccc(F)c(C(=O)c2c[nH]c3ncc(Cl)cc23)c1F` + CN(NC(=O)CC(=O)NN(C)C(=S)c1ccccc1)C(=S)c1ccccc1 [STA4783] (first compound 0.4 µM, partner dose 0.03 µM), the cell count in [1] was 13.7%; in [2], 66.2%; in experiment [3], 72.6%; in experiment [4] it was 30.5%; in experiment [5], 85.9%; in experiment [6], 34.8%. The cell count in [7] worked out at 18.8%; in experiment [8], 69.8%; in [9], 24.5%; in experiment [10], 48.5%.
As to `CS(=O)(=O)c1ccc(C(=O)Nc2ccc(Cl)c(-c3ccccn3)c2)c(Cl)c1` [vismodegib] + O=C(CCCCCCC(=O)Nc1ccccc1)NO [vorinostat] (first compound 5 µM, partner dose 0.4 µM), the cell count in experiment [1] stood at 52.1%; in experiment [2] it was 66.3%; in [3], 61.5%; in experiment [4], 59.3%; in experiment [5], 67.9%; in [6], 69.8%. The cell count worked out at 61.3% in experiment [7], 65.8% in [8], 76.5% in experiment [9] and 67.1% in experiment [10].
Turning to `NC1(c2ccc(-c3nc4ccn5c(=O)[nH]nc5c4cc3-c3ccccc3)cc2)CCC1` + CS(=O)(=O)CCNCc1ccc(-c2ccc3ncnc(Nc4ccc(OCc5cccc(F)c5)c(Cl)c4)c3c2)o1 [lapatinib] (first compound 2 µM, partner dose 4 µM), the cell count in experiment [1] stood at 48.8%; in experiment [2], 53.7%; in experiment [3], 65%; in experiment [4], 37.9%; in experiment [5], 86.2%; in experiment [6], 38%. Further, the cell count in experiment [7] stood at 64%; in [8], 50.2%; in experiment [9] it was 18.5%; in experiment [10], 42.7%.
`CN(c1ncccc1CNc1nc(Nc2ccc3c(c2)CC(=O)N3)ncc1C(F)(F)F)S(C)(=O)=O` + NC1(c2ccc(-c3nc4ccn5c(=O)[nH]nc5c4cc3-c3ccccc3)cc2)CCC1 [MK2206] (first compound 0.4 µM, partner dose 2 µM): the cell count in experiment [1] amounted to 52.5%; in experiment [2], 59.1%; in experiment [3], 95%; in [4], 51.8%; in experiment [5] it was 65.1%; in experiment [6], 50%. The cell count was 56.1% in [7], 68.5% in experiment [8], 70.9% in experiment [9] and 63.9% in experiment [10].
In the case of `CS(=O)(=O)c1ccc(C(=O)Nc2ccc(Cl)c(-c3ccccn3)c2)c(Cl)c1` [vismodegib] + Nc1ncn([C@H]2C[C@H](O)[C@@H](CO)O2)c(=O)n1 [decitabine] (first compound 5 µM, partner dose 0.5 µM), the cell count was 117% in experiment [1]; 95.7% in experiment [2]; 113% in [3]; 92.3% in experiment [4]; 84.1% in [5]; 68.3% in experiment [6]. For the same compound, the cell count in experiment [7] was 77.3%; in [8], 89.1%; in [9], 82%; in experiment [10] it was 105%.
For the compound `CS(=O)(=O)c1ccc(C(=O)Nc2ccc(Cl)c(-c3ccccn3)c2)c(Cl)c1` [vismodegib] + CN1CCN(c2ccc3nc(-c4c(N)c5c(F)cccc5[nH]c4=O)[nH]c3c2)CC1 [Dovitinib] (first compound 5 µM, partner dose 0.5 µM), the cell count in experiment [1] stood at 62.3%; in experiment [2], 93.9%; in experiment [3] it was 95%; in experiment [4] it was 80%; in experiment [5], 76.2%; in experiment [6], 59.1%. The cell count in experiment [7] is 59.4%; in [8] it was 65.5%; in experiment [9], 49.5%; in [10] it was 91.2%.
Consider `CS(=O)(=O)c1ccc(C(=O)Nc2ccc(Cl)c(-c3ccccn3)c2)c(Cl)c1` [vismodegib] + CNC(=O)c1cc(Oc2ccc(NC(=O)Nc3ccc(Cl)c(C(F)(F)F)c3)cc2)ccn1 [sorafenib] (first compound 5 µM, partner dose 2 µM), for which the cell count is 95.9% in experiment [1]; 95.1% in experiment [2]; 99.4% in experiment [3]; 90.3% in experiment [4]; 87.3% in experiment [5]; 98.4% in experiment [6]. Moreover, the cell count was 94.9% in experiment [7], 125% in experiment [8], 83% in experiment [9] and 95.8% in experiment [10].
`NC1(c2ccc(-c3nc4ccn5c(=O)[nH]nc5c4cc3-c3ccccc3)cc2)CCC1` + NC(=O)Nc1cc(-c2cccc(F)c2)sc1C(=O)N[C@H]1CCCNC1 [AZD7762] (first compound 2 µM, partner dose 0.1 µM): the cell count was found to be 32.3% in experiment [1]; 66.2% in [2]; 72.1% in experiment [3]; 50.8% in [4]; 83.1% in experiment [5]; 47.1% in experiment [6]. The cell count in [7] was 53.5%; in [8], 55.3%; in experiment [9], 89.4%; in [10], 42.1%.
